Values marked as one replicate rest on one cluster of the flow cell; about a third of the high ones do not repeat.
test system: ATP; assay: switch fluorescence ratio, 500 uM ATP over buffer (Cy3 cluster intensity, sum of 5 cycles each) (fold (ratio)); higher = stronger signal-on switching upon ATP binding; sequences stand for … in TCGTCGGCAGCGTCAGATGTGTATAAGAGACAGTTTTTTTTTTTTTTTTTTTTTTTTT…TC; settings: aptamer strand: ATP DNA aptamer (quencher-CACCTGGGGGAGTATTGCGGAGGAAGG + anchor), 100 nM annealed; ATP concentration: 500 uM; one replicate
Procedure, shortened: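 Exposure to 500 uM ATP lasted 15 min at 22 °C before imaging, and a selection-buffer image was taken beforehand, for Cy3-labelled switching-strand clusters on a modified Illumina MiSeq flow-cell annealed to 100 nM quencher-labelled ATP aptamer. Five buffer/ATP cycles were run with NaOH stripping and re-annealing between them. The fluorescence ratio per cluster is summed target-cycle over summed buffer-cycle Cy3 intensity, averaged per switch-domain sequence. Clusters outside 100-1000 RFU were excluded.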

Sequence | switch fluorescence ratio
CCGGGGTTTA | 1
CCGGGTACA | 1.08
CCGGGTAGCG | 0.993
CCGGGTGCCA | 1.12
CCGGGTGCTT | 2.09
CCGGGTGGAC | 1.43
CCGGGTTCT | 1.03
CCGGTAACTA | 1.03
CCGGTACTAC | 4.76
CCGGTACTGA | 1.01
CCGGTATCCC | 1.19
CCGGTATTGG | 1.02
CCGGTGACAA | 2.96
CCGGTGACTC | 1.88
CCGGTTTTAG | 1.05
CCGTACGGGT | 0.954
CCGTATTCGG | 1.05
CCGTCAAGCG | 1.4
CCGTCATCAA | 1.56
CCGTCCACTA | 1.39
CCGTCTAGTT | 0.985
CCGTCTCTAT | 1.05
CCGTCTCTTT | 0.966
CCGTCTGAGG | 1.01
CCGTGATTTA | 1.02
CCGTGCGAGA | 1.36

Sequence | switch fluorescence ratio
CCGTGCGCTA | 4.64
CCGTGCTCGT | 1.03
CCGTGCTGTA | 1.19
CCGTGGCTTT | 0.973
CCGTGGGCTG | 1.03
CCGTGTCCGC | 2.71
CCGTTAACGG | 0.973
CCGTTACCAC | 1.42
CCGTTAGGGT | 1.02
CCGTTATTAT | 1.16
CCGTTCACTC | 1.77
CCGTTCGATC | 1.38
CCGTTGACGG | 1.01
CCGTTGAGGA | 1.01
CCGTTGCCGG | 0.943
CCGTTGGTCC | 1.09
CCTAAAAAAC | 1.18
CCTAAAACTA | 1.06
CCTAAAATTC | 1.13
CCTAACGGCG | 1.01
CCTAATGAGG | 0.996
CCTAATGATA | 0.967
CCTAATGGGG | 1.05
CCTAGAAGGT | 0.979
CCTAGAGTGC | 1.02
CCTAGGAGGC | 1.06

Sequence | switch fluorescence ratio
CCTAGGCACC | 2.23
CCTAGGCCCA | 1.07
CCTAGGTCTC | 1.04
CCTATAAATT | 0.998
CCTATATGGA | 0.977
CCTATCACTG | 1.02
CCTATCTTTT | 1
CCTATGCCGA | 1.04
CCTATGCTAG | 1.34
CCTATGTGGA | 1.02
CCTATTCTCC | 1.16
CCTCAAACAG | 1.41
CCTCAGGCAG | 2.98
CCTCATAGGG | 1.07
CCTCCAGAGT | 2.93
CCTCCGGTTC | 1.7
CCTCCTTAGC | 1.71
CCTCGACCGA | 1.3
CCTCGCTAGG | 3.51
CCTCGGGGTA | 1.01
CCTCGGTATT | 2.19
CCTCGTCTGC | 1.49
CCTCGTTGCG | 0.884
CCTCTAATG | 1.42
CCTCTCGTTA | 3.33

From the supplement of paper PMC10126150
